The record followed here is the supplement of paper PMC4723716.

± gives the uncertainty stated by the source. The full ranking holds about 9,900 compounds; the median of “viability index relative to DMSO control” is about 1, and the lowest 2% start at about 0.85. The list shows a part of the results.

The test system of the experiment is Plasmodium falciparum NF54 stage V gametocytes. The experiment can be described thus: viability index relative to DMSO control (fraction); higher = less gametocyte killing. To be noted: 2.5 µM, library set: Broad Institute DOS, incubation time: 72 h. The method in brief:
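P. falciparum NF54 stage V gametocytes (serum-free medium, 0.75% gametocytemia, 1.25% hematocrit) were exposed to compound at 2.5 µM for 72 hr at 37°C under low oxygen, then stained with MitoTracker Red CMXRos and saponin for one to two hours. Red particles of 20–70 µm2 in one field per well were counted, and the viability index is that count scaled to the plate mean of solvent-only wells.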
In turn, `O=C(C[C@H]1CC[C@@H](NC(=O)CN2CCOCC2)[C@H](CO)O1)NC1CCC1` came in with a viability index of 1.13 ± 0.11.
The compound `C[C@@H]1CCn2cc(nn2)COC[C@@H](Cc2ccccc2)NC1=O` came in with a viability index of 1.03 ± 0.055.
On to `CN(C)C(=O)c1cccc(-c2ccccc2[C@H]2[C@H](C#N)N(C(=O)C3CCCCC3)[C@H]2CO)c1`, for which the viability index was 1.06 ± 0.056.
In the case of `O=C(CN1CCOCC1)N1CCCCN2[C@H](C1)[C@H](c1ccc(Br)cc1)[C@@H]2CO` it was 0.986 ± 0.015.
Then `COc1ccc2c3c([nH]c2c1)[C@@H](CO)N(C[C@]31CCN(Cc2cccnc2)CC1)C(=O)c1ccc(F)cc1`, with 0.984 ± 0.1; and `O=C(C[C@@H]1C=C[C@@H](NS(=O)(=O)c2ccccc2)[C@H](CO)O1)NCCN1CCCCC1`, with 1.09 ± 0.12; and `C/C=C/c1ccc([C@H]2[C@@H](C#N)N(c3nc(CC)cs3)[C@H]2CO)cc1`, with 1.09 ± 0.0072.
As for `COc1ccc2c3c([C@H](CO)N(Cc4ccccc4Cl)C[C@]33CCN(CC3)C(=O)CC3CC3)n(C)c2c1`, the viability index was determined as 0.922 ± 0.014.
For `CCS(=O)(=O)N1CC(=O)N2[C@H](C1)[C@@H](c1ccc(C#CC3CCCCC3)cc1)[C@@H]2CO`, the viability index amounted to 0.98 ± 0.035.
Then `OC[C@H]1[C@@H](c2ccccc2)C2(CN(Cc3ccccn3)C2)N1Cc1cncnc1`, with 1.08 ± 0.019; and `O=C([C@H]1[C@H](CO)[C@H]2Cn3c(cccc3=O)[C@@H]1N2Cc1cocn1)N1CCCCC1`, with 1.03 ± 0.037; and `Cc1noc(C)c1S(=O)(=O)N(C)C[C@@H]1OCCCC[C@@H](C)Oc2ccc(NC(=O)CCC(F)(F)F)cc2C(=O)N([C@@H](C)CO)C[C@@H]1C`, with 1.09 ± 0.024.
With `O=C(c1cccnc1)N1CC[C@@H]2[C@@H](CO)Nc3ccc(C4=CCCCC4)cc3[C@@H]21`, the viability index turned out to be 1.06 ± 0.12.
Then `C[C@@H]1CN([C@H](C)CO)C(=O)c2cccc(NC(=O)Nc3ccc(C(F)(F)F)cc3)c2O[C@H]1CN(C)S(=O)(=O)c1cn(C)cn1`, with 1.09 ± 0.03.
In the case of `COc1ccccc1CNC(=O)C[C@H]1C[C@H]2c3cc(NC(=O)C4CCC4)ccc3O[C@H]2[C@@H](CO)O1` it was 1.1 ± 0.057.
In the case of `COc1ccc(S(=O)(=O)N(C)C[C@@H]2Oc3ccc(N(C)C)cc3CC(=O)N([C@@H](C)CO)C[C@H]2C)cc1` it was 0.938 ± 0.06; in that of `C[C@@H]1CN([C@@H](C)CO)C(=O)c2cc(N(C)C)ccc2O[C@H]1CN(C)Cc1ccc(Oc2ccccc2)cc1`, 0.983 ± 0.035; in that of `COc1cccc(-c2ccc3c(c2)O[C@H](CN(C)Cc2cccnc2)[C@@H](C)CN([C@H](C)CO)S3(=O)=O)c1`, 0.94 ± 0.046.
Take `COc1ccc(-c2ccccc2[C@H]2[C@@H](C#N)N(C(=O)C3CCC3)[C@@H]2CO)cc1`: the viability index stood at 1.21 ± 0.17.
Then `CN1C(=O)c2cc(NC(=O)c3cccc(F)c3)ccc2OC[C@@H]2O[C@H](CC(=O)NCc3ccccc3Cl)CC[C@@H]21`, with 0.932 ± 0.042; and `COc1ccc(NC(=O)N(C)C[C@H]2Oc3c(NC(=O)CCCCCC(=O)Nc4ccccc4N)cccc3C(=O)N([C@H](C)CO)C[C@H]2C)cc1`, with 0.62 ± 0.082; and `C[C@H]1CCc2cnnn2COCCNC1=O`, with 0.919 ± 0.21.
In the case of `O=C(C[C@H]1CC[C@H]2[C@@H](COC[C@@H](O)CN2Cc2cc(F)ccc2F)O1)NCc1ccc(Oc2ccccc2)cc1` it was 1.069 ± 0.0049; in that of `COc1ccc(S(=O)(=O)N(C)C[C@H]2Oc3c(cccc3N(C)C)C(=O)N([C@H](C)CO)C[C@@H]2C)cc1`, 0.979 ± 0.073.
In the case of `CCCNC(=O)N1C[C@@H]2N[C@H](C1)[C@H]2c1ccc(-c2ccc(OC)cc2)cc1` it was 1.03 ± 0.046.
For `COc1ccc(C(=O)N2C[C@H]3[C@@H](c4ccccc42)[C@H](CO)N3C(=O)NC(C)C)cc1`, the viability index turned out to be 1.04 ± 0.14.
In the case of `CO[C@H]1CN(C)C(=O)c2cc(NC(=O)NC(C)C)ccc2OC[C@H](C)N(Cc2ccccc2)C[C@H]1C` it was 1.01 ± 0.022.
Then `CO[C@@H]1CN(C)C(=O)c2cccc(C#N)c2OCC[C@@H]2CC[C@@H](OC)[C@@H](CN(C)C(=O)[C@H]1C)O2`, with 1.09 ± 0.059.
Then `COc1cccc(C#Cc2ccc([C@@H]3[C@@H](CO)N4C(=O)CN(C(=O)Cc5cccnc5)C[C@H]34)cc2)c1`, with 1.01 ± 0.084; and `CN(C)C(=O)c1cccc(-c2ccc([C@H]3[C@H](CO)N4C(=O)CN(C(=O)C5CCC5)C[C@@H]34)cc2)c1`, with 1.01 ± 0.038.
In the case of `COCC#Cc1ccc([C@@H]2[C@H](CO)N3CCCCN(Cc4cccnc4)C[C@@H]23)cc1`, the viability index was found to be 1.03 ± 0.068.
In the case of `O=C(N[C@H]1C=C[C@@H](CC(=O)N2CCN(c3ccccc3)CC2)O[C@@H]1CO)c1ccccc1` it was 1.1 ± 0.04.
Then `C/C=C/c1ccc([C@@H]2[C@H](CO)N(C(=O)C3CCC3)C23CN(C(=O)NC(C)C)C3)cc1`, with 1.06 ± 0.014; and `COCC(=O)Nc1ccc2c(c1)OC[C@H](C)N(C)C[C@@H](C)[C@@H](OC)CN(C)C2=O`, with 1.06 ± 0.093.
Then `O=C(Cc1cccnc1)N1CC(=O)N2[C@H](CO)[C@H](c3ccc(C#CC4CCCCC4)cc3)[C@@H]2C1`, with 1.03 ± 0.036; and `CC(C)(C)[S@](=O)N1Cc2cc(C(=O)N3CCc4ccccc4C3)nc(-c3cccc(-c4cncnc4)c3)c2[C@@H]1CCO`, with 1.05 ± 0.076; and `CO[C@@H]1CN(C)C(=O)c2cc(NS(=O)(=O)c3ccccc3C)ccc2OC[C@@H](C)N(S(=O)(=O)c2ccccc2)C[C@H]1C`, with 1.12 ± 0.058.
For the compound `N#C[C@@H]1[C@@H](c2ccccc2-c2ccccc2F)[C@@H](CO)N1C(=O)c1ccccn1`, the viability index is 1.1 ± 0.17.
In the case of `CCC(=O)N1[C@H](CO)[C@H](c2ccccc2)C12CN(C(=O)c1ccncc1)C2` it was 1.15 ± 0.098.
In turn, `C[C@H](CO)N1C[C@H](C)[C@H](CN(C)S(=O)(=O)c2cn(C)cn2)OCc2cnnn2CCCC1=O` had a viability index of 1.01 ± 0.029.
With `COc1ccc(S(=O)(=O)N(C)C[C@H]2Oc3ccc(NC(=O)Nc4ccc(C(F)(F)F)cc4)cc3C(=O)N([C@H](C)CO)C[C@H]2C)cc1`, the viability index was determined as 1.03 ± 0.16.
Then `C[C@H](CO)N1C[C@H](C)[C@H](CN(C)C(=O)CCC(F)(F)F)OCCCC[C@H](C)Oc2ccc(NC(=O)C3CCCCC3)cc2C1=O`, with 1.1 ± 0.15.
In the case of `CN(C)CC(=O)N1[C@H](CO)[C@H](c2ccccc2)C12CN(C(=O)c1ccc(F)cc1)C2` it was 1.11 ± 0.06.
In the case of `COc1ccc(CN(C)C[C@@H]2OCCCC[C@@H](C)Oc3ccc(NC(=O)C4CCCCC4)cc3C(=O)N([C@H](C)CO)C[C@H]2C)cc1` it was 1.03 ± 0.042; in that of `O=C(Cc1ccncc1)Nc1ccc2c(c1)[C@H]1C[C@@H](CC(=O)N3CCc4ccccc4C3)O[C@@H](CO)[C@H]1O2`, 1.06 ± 0.04; in that of `COc1ccc(C(=O)Nc2ccc3c(c2)C(=O)N(C)[C@@H]2CC[C@@H](CC(=O)NCC4CC4)O[C@H]2CO3)cc1`, 0.932 ± 0.15.
Take `C/C=C/c1ccc2c(c1)O[C@@H](CN(C)C(=O)Nc1ccc(OC)cc1)[C@H](C)CN([C@@H](C)CO)S2(=O)=O`: the viability index stood at 0.987 ± 0.059.
Then `Fc1cccc(-c2ccc([C@H]3[C@H]4CNC[C@@H]3N4Cc3cncnc3)cc2)c1`, with 0.985 ± 0.08; and `COCC(=O)Nc1ccc2c(c1)C(=O)N(C)[C@H]1CC[C@@H](CC(=O)NCCCN(C)C)O[C@@H]1CO2`, with 0.998 ± 0.096; and `COc1ccc2c3c([C@H](CO)N(C[C@]33CCN(CC4CCCCC4)CC3)S(C)(=O)=O)n(C)c2c1`, with 0.902 ± 0.063.
With `CN(C)C(=O)c1cccc(-c2ccccc2[C@H]2[C@@H](CO)N(C(=O)C3CCCCC3)[C@H]2C#N)c1`, the viability index came out at 1.1 ± 0.037.
In the case of `O=C(C[C@H]1C=C[C@H](NC(=O)c2cnccn2)[C@H](CO)O1)NCc1ccccc1F` it was 1.01 ± 0.14; in that of `C(=C\c1ccc([C@H]2[C@@H]3CN(Cc4nccs4)C[C@H]2N3)cc1)/c1ccccc1`, 0.984 ± 0.06.
In the case of `CCC(=O)N1C[C@H]2[C@@H](c3ccccc31)[C@@H](CO)N2Cc1ccc(F)cc1` it was 1.04 ± 0.036; in that of `CC(C)NC(=O)N(C)C[C@H]1Oc2ccc(NC(=O)c3ccncc3)cc2C(=O)N([C@H](C)CO)C[C@@H]1C`, 0.939 ± 0.082; in that of `O=C(Cc1ccncc1)NCC[C@@H]1CC[C@@H](NS(=O)(=O)c2ccccc2Cl)[C@@H](CO)O1`, 1.08 ± 0.081.
In the case of `CC(C)CC#Cc1ccc([C@H]2[C@@H](CO)N3C(=O)CN(C(=O)c4cccc(F)c4)C[C@@H]23)cc1` it was 1.09 ± 0.059; in that of `N#C[C@H]1[C@@H](c2ccccc2)[C@H](CO)N1S(=O)(=O)c1cccc(F)c1`, 1.1 ± 0.034; in that of `CO[C@H]1CN(C)C(=O)c2cc(NC(=O)Nc3cc(F)ccc3F)ccc2OC[C@H](C)NC[C@@H]1C`, 1.03 ± 0.053.
For `COCC(=O)NC[C@@H]1[C@H](c2ccccc2)[C@H](CO)N1C(=O)c1ccccc1`, the viability index worked out at 0.986 ± 0.17.
On to `CNC[C@H]1Oc2ccc(NC(=O)NC3CCCCC3)cc2CC(=O)N([C@H](C)CO)C[C@H]1C`, for which the viability index came to 0.964 ± 0.085.
`COC(=O)C[C@@H]1C[C@@H]2c3cc(NC(=O)C4CCOCC4)ccc3O[C@@H]2[C@H](CO)O1` registered a viability index of 1.11 ± 0.046.
Then `O=C(NCC[C@H]1CC[C@H](NC(=O)c2ccncc2)[C@H](CO)O1)Nc1ccc(Cl)cc1`, with 1.12 ± 0.081; and `CCCNC(=O)C[C@@H]1CC[C@H]2[C@H](COc3ccc(NC(=O)CC)cc3C(=O)N2C)O1`, with 1.12 ± 0.067; and `CCCC(=O)N1C[C@]2(CN(C2)C(=O)NC(C)C)c2c([nH]c3cc(OC)ccc23)[C@H]1CO`, with 0.984 ± 0.16.
Take `O=C(C1CCOCC1)N1C[C@@H]2[C@H](c3ccccc31)[C@H](CO)N2C(=O)Cc1ccccn1`: the viability index turned out to be 1.06 ± 0.039.
Then `Cn1cnc(S(=O)(=O)N2C[C@@H](O)COC[C@@H]3O[C@@H](CC(=O)NCc4cccc(F)c4)CC[C@H]32)c1`, with 1.01 ± 0.021; and `C[C@H]1CN([C@@H](C)CO)C(=O)c2c(c3ccccc3n2C)-c2ccccc2CO[C@@H]1CN(C)C(=O)Nc1ccc2c(c1)OCO2`, with 0.961 ± 0.062.
In the case of `CCCN1C[C@@H](C)[C@@H](OC)CN(C)C(=O)c2cc(NC(=O)C3CCC3)ccc2OC[C@@H]1C` it was 1.02 ± 0.05; in that of `C[C@H]1CN([C@@H](C)CO)C(=O)c2ccccc2-c2ccccc2CO[C@@H]1CN(C)C(=O)CCC(F)(F)F`, 1.03 ± 0.064; in that of `COCC(=O)Nc1ccc2c(c1)[C@H]1C[C@H](CC(=O)NCc3ccc4c(c3)OCO4)O[C@@H](CO)[C@H]1O2`, 1.05 ± 0.012.
Then `O=C(C[C@@H]1CC[C@@H]2[C@H](COC[C@H](O)CN2C(=O)c2cnccn2)O1)N1CCN(c2ccccc2)CC1`, with 1.09 ± 0.1.
